Measurements published in PubChem BioAssay AID1768 (National Center for Advancing Translational Sciences (NCATS), 2009).
In all, about 270,000 compounds went through this assay and about 620 (0.23%) were called active. Inconclusive results, whose numbers are uncertain, are shown with a selection of clear calls. Calls come from the whole dose curve; as a rule, active = well fitted inhibition curve with a large enough effect in the polarisation, with a control signal flat (not every such curve was filed as active); inconclusive = small, poorly fitted or top-dose-only effect, or effect the other way, or a change in a side signal; inactive = no such curve, though single readings can be large or run the other way; the % refers to the polarisation. Where the call is inconclusive, the potency comes from a doubtful curve fit. “Side channel” marks fits to a control or component signal instead of the main read-out.

What follows are molecules tested against Menin (Homo sapiens) (UniProt O00255) (assay: qHTS Assay for Inhibitors Targeting the Menin-MLL Interaction in MLL Related Leukemias: Competition With Texas Red Labeled MLL-derived Mutant Peptide). Conditions: fluorescence polarization; FP activity change, negative = inhibition: at 61.6 µM (top of the series).
Potency is the fitted concentration of half-maximal effect; tags give direction and shape of the fitted curve or compound fluorescence and quenching.
Throughout, for FP activity change, negative = inhibition: % of control where 0% means no effect.

UniProt O00255, sequence (O00255 whole entry, looked up): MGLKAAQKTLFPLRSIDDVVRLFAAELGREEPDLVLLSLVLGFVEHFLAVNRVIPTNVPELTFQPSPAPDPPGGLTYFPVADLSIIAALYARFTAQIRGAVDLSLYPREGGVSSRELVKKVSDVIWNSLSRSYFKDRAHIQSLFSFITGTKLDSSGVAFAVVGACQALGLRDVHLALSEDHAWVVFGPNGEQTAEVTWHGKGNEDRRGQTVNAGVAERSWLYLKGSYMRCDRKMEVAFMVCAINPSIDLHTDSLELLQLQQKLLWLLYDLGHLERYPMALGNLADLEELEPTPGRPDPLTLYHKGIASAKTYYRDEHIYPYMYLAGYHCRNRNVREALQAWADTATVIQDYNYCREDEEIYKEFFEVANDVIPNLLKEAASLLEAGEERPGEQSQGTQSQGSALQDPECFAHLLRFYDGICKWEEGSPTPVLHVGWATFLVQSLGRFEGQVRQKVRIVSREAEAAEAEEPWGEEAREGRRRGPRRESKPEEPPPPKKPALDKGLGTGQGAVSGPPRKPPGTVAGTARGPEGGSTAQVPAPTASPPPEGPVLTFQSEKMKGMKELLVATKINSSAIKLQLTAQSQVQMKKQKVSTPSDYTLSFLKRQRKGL

Compound | FP activity change, negative = inhibition | Potency
C[C@H](NC(=O)N1CCc2nc(COc3ccccc3)c3c(c2C1)CO[C@@H](C)C3)c1ccccc1 | inactive: -11.1% [at 11.7 µM] | –
COc1ccc(C2CC(c3ccc4ccccc4c3)=NN2C(=O)CNC2CCCCC2)cc1 (stereo not drawn) | – | inconclusive: 3.55 µM [fluorescent, side channel, partial curve]
O=C(Nc1ccccc1)Nc1ccc(Br)c(Cl)c1 | – | inconclusive: 11.2 µM [quencher, side channel, partial curve]
CC(=O)Nc1ccn(C2OC(C(COC(C)=O)NC(=O)C(C)NC(=O)OC(C)(C)C)C(OC(C)=O)C2OC(C)=O)c(=O)n1 (stereo not drawn) | inactive: 1.41% | –
Cc1cc(=O)oc(C)c1C(=O)OCC(=O)c1ccc2ccccc2c1 | – | inconclusive: 39.8 µM [fluorescent, side channel, single point]
Oc1ccc(/C=N/Nc2cc(N3CCCC3)nc(N3CCCC3)n2)cc1O | inactive: 2.25% | –
O=C(Nc1cccc([N+](=O)[O-])c1)c1ccc2ccccc2c1O | – | inconclusive: 8.91 µM [quencher, side channel, partial curve]
O=c1[nH]c(Nc2ccc(F)cc2)cc2ccccc12 | inactive: -9.09% | –
COC(=O)N/N=C/c1cn(CCOc2cccc(OC)c2)c2ccccc12 | – | inconclusive: 22.4 µM [quencher, side channel, partial curve]
COc1cccc(Cn2c(-c3nonc3N)nc3ccccc32)c1 | – | inconclusive: 25.1 µM [quencher, side channel, single point]
CCOC(=O)c1ccc(N2C(=O)C(O)=C(C(C)=O)C2c2ccc([N+](=O)[O-])cc2)cc1 (stereo not drawn) | – | inconclusive: 15.8 µM [quencher, side channel, single point]
Cc1cc(C)cc(NC(=S)N(Cc2ccc(Br)cc2)Cc2ccc(C(=O)O)cc2)c1 | – | inconclusive: 7.94 µM [quencher, side channel, partial curve]
COc1ccc(N2CCN(C(=O)c3cn(C4CCCC4)c(=O)c4c3c3ccccc3n4C)CC2)cc1 | inactive: -0.514% | –
O=C(/C=C/c1ccco1)Nc1ccccc1N1CCCC1 | – | inconclusive: 11.2 µM [fluorescent, side channel, partial curve]
CCOC(=O)C1(CCCc2ccccc2)CCN(C(=O)C(C)n2cncn2)CC1 (stereo not drawn) | – | inconclusive: 10 µM [fluorescent, side channel, partial curve, poor fit]
O=C(Nc1cccnc1Cl)c1cc(-c2ccccc2O)on1 | – | inconclusive: 39.8 µM [inhibitor, single point]
COc1ccc(-c2[nH]c(-c3ccc(C)cc3)nc2SCC(=O)NC2CCCC2)cc1 | – | inconclusive: 12.6 µM [quencher, side channel, partial curve]
CC(Sc1nnc(-c2ccc(Cl)cc2Cl)n1Cc1ccccc1)C(=O)Nc1nccs1 (stereo not drawn) | – | inconclusive: 3.55 µM [fluorescent, side channel, partial curve]
N#CC(=C1CCCC1)c1nc(-c2ccccc2O)cs1 | – | inconclusive: 22.4 µM [quencher, side channel, partial curve]
Cc1ccc2occ(/C=N/NC(N)=S)c(=O)c2c1 | inactive: -21.9% | –

Compound | FP activity change, negative = inhibition | Potency
Fc1ccccc1-c1nc(NCCCN2CCOCC2)c2ccccc2n1 | inactive: -5.57% | –
CCCS(=O)(=O)c1cn2cccc(N)c2c1S(=O)(=O)CCC | – | inconclusive: 22.4 µM [inhibitor, single point]
O=C(c1c[nH]c(C(=O)N2CCN(Cc3ccccc3)CC2)c1)C1CCCCC1 | – | inconclusive: 44.7 µM [inhibitor, single point]
O=C(/C=C/c1ccc(-c2ccccc2)o1)c1ccccc1 | – | inconclusive: 20 µM [quencher, side channel, single point]
Cc1c(Cl)c([N+](=O)[O-])nn1Cc1ccc(C(=O)N/N=C\c2cc(Cl)ccc2O)o1 | – | inconclusive: 8.91 µM [quencher, side channel, partial curve]
O=C(Cn1ccc2ccccc2c1=O)NCC(=O)Nc1ccc(F)cc1F | – | inconclusive: 39.8 µM [fluorescent, side channel, single point]
CC(C)CN(C)C(=O)CCc1nnc(Cc2ccc(-c3ccccc3)cc2)o1 | – | inconclusive: 1 µM [fluorescent, side channel, full curve]
C[C@@]1(C2CCCC2)Cc2cc(OCC(=O)O)c(Cl)c(Cl)c2C1=O | – | inconclusive: 17.8 µM [quencher, side channel, partial curve, poor fit]
O=C(NCCc1ccccc1Cl)C1CCC(=O)N(CCCc2ccccc2)C1 (stereo not drawn) | inactive: -5.76% | –
Clc1ccc(Nc2nc(C3CC3)cs2)cc1 | – | inconclusive: 28.2 µM [quencher, side channel, partial curve]
Cc1ccc(NC(=O)C(=O)NCc2ccc(/C=C(/C#N)C(=O)NCc3cccnc3)o2)cc1 | – | inconclusive: 3.16 µM [inhibitor, partial curve]
O=c1c2ccccc2c(-c2ccc(O)cc2)nn1-c1cccc(C(F)(F)F)c1 | – | inconclusive: 11.2 µM [quencher, side channel, partial curve]
O=S(=O)(Nc1ccc(O)c(Sc2nc3ccccc3s2)c1)c1ccc(Cl)cc1 | – | inconclusive: 31.6 µM [quencher, side channel, partial curve]
CCOc1ccc(N(CC(=O)NCc2ccc(OC)cc2)S(C)(=O)=O)cc1 | inactive: 8.02% | –
COc1ccc(-c2csc3ncnc(Nc4ccc(O)cc4)c23)cc1 | – | inconclusive: 28.2 µM [quencher, side channel, partial curve]
Cc1nc2c(cnn2-c2ccccc2Cl)c(=O)n1-c1ccc(N2CCC(C)CC2)cc1 | – | inconclusive: 0.0089 µM [fluorescent, side channel, full curve, poor fit]
CC(C)C(=O)OCC(=O)Nc1ccc(N=Nc2ccccc2)cc1 | – | inconclusive: 15.8 µM [quencher, side channel, partial curve]
O=c1cc(CN2CCN(c3ccccc3)CC2)c2cc(O)c(-c3ccccc3)cc2o1 | – | inconclusive: 8.91 µM [quencher, side channel, full curve, poor fit]
CCOCCCN1C(=O)CN(C2CCCCC2)C(=O)C1c1ccc(OCC)c(OC)c1 (stereo not drawn) | – | inconclusive: 35.5 µM [inhibitor, single point]
Cc1ccc(N2NC(=O)/C(=C/c3ccc(-c4ccc(Cl)c(C(=O)O)c4)o3)C2=O)cc1C | – | inconclusive: 25.1 µM [quencher, side channel, partial curve]

Compound | FP activity change, negative = inhibition | Potency
COc1ccccc1-n1cnnc1SCC(=O)Nc1cccc(S(N)(=O)=O)c1 | – | inconclusive: 8.91 µM [quencher, side channel, single point]
CCc1ccc(C(O)(C(C)C)C(CN2CCOCC2)c2ccccc2)cc1 (stereo not drawn) | – | inconclusive: 11.2 µM [fluorescent, side channel, partial curve]
O=C(OCc1ccc2c(c1)OCO2)c1ccc(S(=O)(=O)N2CCCCC2)cc1 | – | inconclusive: 28.2 µM [fluorescent, side channel, single point]
Cc1ccc(OCC(=O)NC2CCCc3ccccc32)c(C)c1 (stereo not drawn) | – | inconclusive: 10 µM [fluorescent, side channel, partial curve]
C=CCC(O)(/C=C/c1ccccc1)c1ccccc1 (stereo not drawn) | inactive: -11.6% | –
O=C(COC(=O)CCCOc1ccc(Cl)cc1Cl)Nc1cccc(Cl)c1 | – | inconclusive: 22.4 µM [quencher, side channel, partial curve]
COc1ccc(CNC(=O)c2cc3c(C)nc4ccccc4c3o2)c(OC)c1 | – | inconclusive: 15.8 µM [fluorescent, side channel, partial curve]
N#Cc1c(-c2ccccc2Cl)cc(C2CC2)nc1N | inactive: -12.8% | –
O=C(NC1=NCCS1)c1ccc(Cl)c(Cl)c1 | – | inconclusive: 20 µM [inhibitor, single point]
O=C(Nc1ccc(Cl)cc1)c1cc2c(cc1O)[nH]c1ccccc12 | – | inconclusive: 20 µM [quencher, side channel, partial curve]
CCS(=O)(=O)Nc1cccc(-c2ccc3nnc(-c4cccnc4)n3n2)c1 | – | inconclusive: 17.8 µM [inhibitor, partial curve]
CC1CC(C)CN(C(=O)c2ccccc2Nc2ccc(SC(F)F)cc2)C1 (stereo not drawn) | – | inconclusive: 3.98 µM [fluorescent, side channel, full curve, poor fit]
COc1ccc(/C=N/NC(=S)Nc2ccccc2)cc1 | – | inconclusive: 12.6 µM [quencher, side channel, partial curve]
CC(C)(C)c1ccc(OCc2ccc(C(=O)N/N=C/c3ccc([N+](=O)[O-])cc3)o2)cc1 | – | inconclusive: 12.6 µM [quencher, side channel, partial curve]
CCCOC(=O)c1ccc(Oc2cn[nH]c2-c2ccc(OC)cc2O)cc1 | – | inconclusive: 17.8 µM [quencher, partial curve]
Cc1ccc(C(=O)O/N=C2\CCCc3ccccc32)cc1 | – | inconclusive: 3.55 µM [inhibitor, single point]
O=C(/C(=C/c1ccccc1)c1ccccc1)N1CCCCC1 | – | inconclusive: 1.12 µM [inhibitor, full curve]
O=C1CC(c2cccc(Br)c2)c2cc3c(cc2N1)CCC3 (stereo not drawn) | – | inconclusive: 2.51 µM [inhibitor, full curve]
